Reference: patent publication US10858425B2, “Pan-ELR+ CXC chemokine antibodies” (Eli Lilly and Company, priority 2013, dated 2020)

Assay: Physical stability evaluation, % HMW aggregate by analytical SEC
Type: physicochemical
Conditions: for % HMW (t = 1 week) / Δ % HMW (t = 1 week) / % HMW (t = 4 weeks) / Δ % HMW (t = 4 weeks): 50 mg/mL; for Δ % HMW (t = 1 week): 1 week minus initial; for Δ % HMW (t = 4 weeks): 4 weeks minus initial
Source text: Protein aggregation and self-association is an undesirable property in antibodies as it could potentially exacerbate unwanted effects, such as triggering an immune response. Thus, maintaining the antibody in a monomeric state is highly desirable. Percent high molecular weight (% HMW) aggregate is an indicator of protein aggregation and self-association. A higher % HMW aggregate indicates increased protein aggregation/self-association and increased physical instability. Physical stability of Antibody 1 and Antibody 2 are determined as follows.
Antibody is dialyzed overnight at 4° C. into 10 mM Citrate, pH 6+/−150 mM NaCl. The next morning, the samples are concentrated to 50 mg/mL, filtered through 0.2 micron filters, and then Tween-80 is added to a final concentration of 0.02%. Each sample is incubated at 25° C. for the specified times. Soluble aggregate formation is followed by analytical SEC using a TSK3000SWXL, 5 micron column with dimensions 30 cm×0.78 cm. […] Samples are applied as 1 μL injections and monitored at 280 nm to determine the increase % HMW aggregate (Table 3).
The 50 mg/mL formulations are incubated for 1 and 4 weeks at 25° C. to assess longer-term stability under stress conditions. The delta % HMW aggregate is determined by subtracting the % HMW aggregate at time zero (designated as ‘Initial’ in Table 3) from the % HMW at the 1 week or 4 week time point.

[1] = 10 mM Citrate pH7, 150 mM NaCl 25° C.
[2] = 10 mM Citrate pH7, 150 mM NaCl, 0.02% Tween-80 25° C.

B1: Antibody 2: antibody with heavy chain SEQ ID NO: 13 and light chain SEQ ID NO: 15, expressed in NSO cells (antibody)
heavy: QVQLVQSGAEVKKPGASVKVSCKASGYEFTSYWIHWVRQAPGQGLEWMGNISPNSGSANYNEKFKSRVTMTRDTSTSTVYMELSSLRSEDTAVYYCAREGPYSYYPSRQYYGSDLWGQGTLVTVSSASTKGPSVFPLAPCSRSTSESTAALGCLVKDYFPEPVTVSWNSGALTSGVHTFPAVLQSSGLYSLSSVVTVPSSSLGTKTYTCNVDHKPSNTKVDKRV[human IgG4 Fc with S228P (EU numbers) not spelt out]
light: EIVLTQSPATLSLSPGERATLSCRASQSISNNLHWYQQKPGQAPRLLIYYTSRSVSGIPARFSGSGSGTDFTLTISSLEPEDFAVYYCGQNNEWPEVFGGGTKVEIKRTVAAPSVFIFPPSDEQLKSGTASVVCLLNNFYPREAKVQWKVDNALQSGNSQESVTEQDSKDSTYSLSSTLTLSKADYEKHKVYACEVTHQGLSSPVTKSFNRGEC
% HMW Initial (4° C.) (10 mM Citrate pH7, 150 mM NaCl, 0.02% Tween-80): 0.42% | % HMW Initial (4° C.) (10 mM Citrate pH7, 150 mM NaCl): 0.37% | % HMW (t = 1 week) [1]: 0.48% | Δ % HMW (t = 1 week) [1]: 0.11% | % HMW (t = 4 weeks) [1]: 0.59% | Δ % HMW (t = 4 weeks) [1]: 0.22% | % HMW (t = 1 week) [2]: 0.55% | Δ % HMW (t = 1 week) [2]: 0.13% | % HMW (t = 4 weeks) [2]: 0.74% | Δ % HMW (t = 4 weeks) [2]: 0.32%
